# The whole screen tested about 420,000 compounds, of which about 50,000 (12%) were called active. The shares of active, inactive and inconclusive entries below differ from those in the screen. The call rests on the fitted dose curve; in most records, active means well fitted inhibition curve with a large enough effect; inconclusive means small, poorly fitted or top-dose-only effect; inactive means flat fitted curve, though single readings scatter. Potencies of inconclusive entries are left out as doubtful fits.
# Assay: qHTS for Inhibitors of human tyrosyl-DNA phosphodiesterase 1 (TDP1): qHTS in cells in presence of CPT; further: nearly all actives have a fitted effect of over 55% in size
# Details: chicken DT40 Tdp1-/-;hTDP1 cells + 20 nM CPT, ATP luminescence, 48 h; activity change, negative = growth inhibition: at 46.2 µM (top of the series) unless noted
# Summary of the method: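 Chicken DT40 Tdp1-/- cells complemented with human TDP1, 400 cells/well, exposed to compounds plus 20 nM camptothecin for at least 48 h at 37 C; viability read as ATP content by CellTiter-Glo luminescence.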
# On the % scale 0 is the no-effect control and ±100 the full control effect; potency means the concentration at half of the fitted maximal effect; tags describe the fitted curve by direction and shape.
SMILES,Potency,"activity change, negative = growth inhibition"
Cc1c(C(=O)N(C)c2cccc(C(F)(F)F)c2)sc2nc3n(c(=O)c12)CCCCC3,"inconclusive [inhibitor, partial curve, poor fit]",–
CCOC(=O)CSc1nc2c(sc3ccc([N+](=O)[O-])cc32)c(=O)n1Cc1ccco1,"inconclusive [inhibitor, single point]",–
COc1ccc(CCNC(=O)CCC(=O)N2CC(C)Oc3ccccc32)cc1OC (configuration not stated),–,inactive: -21%
CC(=O)NCCNc1nc2cc(-c3ccc4c(ccn4C)c3)sc2c(=O)n1C,"inconclusive [inhibitor, single point]",–
O=C(/C=C/c1cc(Br)ccc1F)OCC(=O)N1CCCC1,–,inactive: -2.17%
Cc1nn(Cc2c(F)c(F)c(F)c(F)c2F)c(C)c1NC(=O)c1ccc(COc2ccccc2Cl)cc1,"inconclusive [inhibitor, full curve]",–
COc1ccc(NC(=O)NC(C)c2ccc3c(c2)OCO3)c(OC)c1 (configuration not stated),–,inactive: -2.55%
CCOCC(=O)Nc1nc2ccc(OCC)cc2s1,"inconclusive [inhibitor, single point]",–
Cc1[nH]n(-c2ccccc2)c(=O)c1-c1ccc(Cl)cc1,"inconclusive [inhibitor, single point]",–
Clc1ccccc1OCc1nc(-c2ccncc2)no1,"inconclusive [inhibitor, single point]",–
CC(C)NC(=O)CSCc1c(Cl)cccc1Cl,"inconclusive [inhibitor, single point]",–
Cc1cc(NC(=O)CCC(=O)N(CC2CCCO2)C(C(=O)NC2CCCC2)c2cccnc2)no1 (configuration not stated),"inconclusive [inhibitor, single point]",–
CCSc1ncc(Cl)c(C(=O)N2CCN(c3ccc(OC)cc3)CC2)n1,"inconclusive [inhibitor, partial curve]",–
O=C(N/N=C/c1ccc2cccc(OCc3ccccc3)c2n1)c1ccc(Br)cc1,active: 16.4 µM,–
O=C(NN1C(=O)C2C(C1=O)C1C=CC2C12CC2)c1ccccc1Cl (configuration not stated),–,inactive: -7.88%
CC(C)(C)C1CCC(OC(=O)CN2CCOCC2)CC1 (configuration not stated),–,inactive: -10.7%
COC(=O)[C@@H]1C[C@H]2CC[C@H](O)C[C@H]2N1Cc1ccc(Cl)cc1,"inconclusive [inhibitor, single point]",–
CCOc1ccc(C=Nc2ccc(/C=C/c3ccnc4ccccc34)cc2)cc1OCC,active: 15.8 µM,–
C=Cc1ccc(Cn2c(=O)n(-c3cccc(C)c3)c(=O)c3c2c2cc(C)ccc2n3C)cc1,"inconclusive [inhibitor, partial curve, poor fit]",–
CCCc1cc(NC(=O)COC(=O)c2ccc(O)cc2O)n(-c2ccccc2)n1,"inconclusive [inhibitor, single point]",–
CCCC[C@@H](CN[C@H](C)CNC)NCC1CCC(C(C)(C)C)CC1 (some centres not stated),active: 5.8 µM,–
CC(=O)Nc1cc(-c2cccc(C(=O)N(C)C)c2)cn2c(-c3ccc(F)c(Cl)c3)cnc12,"inconclusive [inhibitor, single point]",–
Cc1cc(C)c(NC(=O)CCCSc2nnc(N)s2)c(C)c1,"inconclusive [inhibitor, single point]",–
CN(C)S(=O)(=O)c1cccc(NC(=O)c2cc(-c3cccs3)nc3ccccc23)c1,"inconclusive [inhibitor, single point]",–

SMILES,Potency,"activity change, negative = growth inhibition"
O=S(=O)(c1cccc(Cl)c1)c1nnn2c1nc(NC1CCCCCC1)c1sccc12,"inconclusive [inhibitor, single point]",–
CCN(CC)CCCNC(=O)c1ccc2nc(CCc3ccccc3)oc2c1,"inconclusive [inhibitor, single point]",–
CCSc1nnc(NC(=O)c2ccccc2C)s1,"inconclusive [inhibitor, partial curve]",–
Cc1cc(NC(=O)CSc2nc3ccccc3c(=O)n2-c2ccccc2)no1,–,inactive: -7.49%
Fc1ccccc1CSc1nnc(-c2cnccn2)n1Cc1ccco1,–,inactive: -5.98%
COC(=O)c1cc(S(=O)(=O)N2CCCCCC2)cn1C,–,inactive: -11.1%
CCN1CCCC1CNC(=O)C(=O)NC (configuration not stated),–,inactive: -0.191%
COC(=O)/C(=C1/Oc2cc(C)oc(=O)c2S1)C(F)(F)F,active: 2.31 µM,–
CCCn1c(N2CCN(C(=O)Nc3ccc(Cl)cc3)CC2)nc2ccccc21,"inconclusive [inhibitor, single point]",–
Cc1c(C(=O)NCc2cccnc2)oc2ccc(S(=O)(=O)N3CC(C)CC(C)C3)cc12 (configuration not stated),–,inconclusive: -23.4% [inhibitor]
O=C(NC1CCCC1)C(=O)N(Cc1cccnc1)C(C(=O)NCc1ccco1)c1ccccc1F (configuration not stated),–,inactive: -2.77%
CCN(CC)c1ccc(NC(=O)C2COc3ccc(OC)cc3C2)c(C)c1 (configuration not stated),active: 0.58 µM,–
Cc1ccc(C)c(OCC(O)CN2CCC(Cc3ccccc3)CC2)c1 (configuration not stated),active: 20.6 µM,–
O=C(Nc1ccc(CN2CCCCC2)cc1)c1sc2ccccc2c1Cl,active: 13 µM,–
O=C(CN1CCOCC1)Nc1cc(C(F)(F)F)ccc1Cl,–,inactive: -23.3%
c1cc2c3c(c1)CCC[N+]3(C1CCCCC1)CCC2,"inconclusive [inhibitor, partial curve]",–
COc1ccc(C(=O)Nc2nncs2)c(OC)c1,–,inconclusive: -34% [inhibitor]
Cc1nn(-c2ncc(C(F)(F)F)cc2Cl)c(=O)n1-c1ccc(F)cc1,"inconclusive [inhibitor, single point]",–
COc1ccc(-c2nc(NC(=O)CCNC(=O)c3ccco3)sc2C)cc1,active: 23.1 µM,–
CC1(C)CC[C@]2(C)CC[C@@]3(C)C(=CCC4[C@@]5(C)CCC(O)C(C)(C)C5CC[C@@]43C)C2C1 (some centres not stated),–,inactive: 19.6%
Cc1ccc(S(=O)(=O)c2c(C)nn(-c3ccccc3)c2OC(=O)c2ccccc2F)cc1,–,inactive: -14.6%
C(=NNc1nnn(Cc2ccccc2)n1)c1ccccc1,"inconclusive [inhibitor, full curve]",–
Cc1cccc(CNc2ncncc2-c2ccccc2C(F)(F)F)c1,–,inactive: -16.7%
CN(Cc1ccco1)c1ncnc2ccc(-c3ccc4c(c3)OCO4)cc12,active: 18.4 µM,–

SMILES,Potency,"activity change, negative = growth inhibition"
CCSc1nnc(NC(=O)C(CC)(C(F)(F)F)C(F)(F)F)s1,"inconclusive [inhibitor, single point]",–
CN1CCC(Nc2ncc3ncnc(Nc4ccc(F)c(Cl)c4)c3n2)CC1,"inconclusive [inhibitor, single point]",–
O=C(Nc1cccc(-c2cccc(Cl)c2)c1)C1CCN(Cc2ccccn2)CC1,"inconclusive [inhibitor, single point]",–
CCSCC(C)(C)n1[nH]c2ccccc2c1=O,–,inconclusive: -30.2% [inhibitor]
COCCN(Cc1ccc(OC)cc1)c1c(C)nc2ccc(C(=O)Nc3ccc(NC(C)=O)cc3)cn12,"inconclusive [inhibitor, single point]",–
CC(C)(C)n1nnnc1C(c1ccnc2ccccc12)N1CCN(C/C=C/c2ccccc2)CC1 (configuration not stated),active: 16.4 µM,–
CCC(C)(C)NC(=O)C(c1ccc(C)cc1)N(Cc1ccco1)C(=O)Cn1nnc2ccccc21 (configuration not stated),–,inactive: -15.6%
Cc1ccc(Nc2nnc(SC/C(O)=C(\C#N)c3nc4ccccc4[nH]3)s2)c(C)c1,"inconclusive [inhibitor, single point]",–
CCOC(=O)c1ccccc1NC(=O)Cn1c(=O)n(Cc2ccccc2)c(=O)c2c(C)c(C)sc21,inactive,–
Fc1cccc(-c2cncc(N3CCN(CCN4CCCC4)CC3)n2)c1,"inconclusive [inhibitor, single point]",–
CN(C(=O)COC(=O)C12CC3CC(CC(Cl)(C3)C1)C2)C1(C#N)CCCCC1,"inconclusive [inhibitor, single point]",–
CC(/C=N/NC(=O)c1cccnc1)=C\c1ccco1,–,inactive: -23.8%
CC(C)C[C@H]1CN(CCCC[C@H]2CNC(=O)C(=O)N2CC2CCCCC2)C(=O)C(=O)N1CC1CCCCC1,"inconclusive [inhibitor, single point]",–
O=C1NNC(=O)C2C3C=CC(C4CC34)C12 (configuration not stated),–,inactive: 5.22%
Oc1ccc(Br)cc1-c1cc(-c2ccccc2F)[nH]n1,"inconclusive [inhibitor, single point]",–
CCOC(=O)/C=C/C(=O)OCC(=O)NC(c1ccccc1)c1ccccc1,active: 5.8 µM,–
O=C(Nc1cccc2c1CCCC2)c1ccc(Cl)c([N+](=O)[O-])c1,"inconclusive [inhibitor, single point]",–
COc1cc(OC)cc(C(=O)Nc2cccc(N3CCCC3)c2)c1,"inconclusive [inhibitor, single point]",–
Clc1ccc(CN2CCSCC2)cc1Cl,–,inactive: -4.29%
CC(C)(C)OC(=O)N1CCC(c2c(C(=O)NCc3ccco3)cnn2-c2ccc(F)cc2)CC1,"inconclusive [inhibitor, single point]",–
CCOc1cc(C2c3c(oc4ccccc4c3=O)C(=O)N2c2nccs2)ccc1O (configuration not stated),"inconclusive [inhibitor, single point]",–
COc1ccccc1C(=O)N1CCCC(C)(C(=O)NS(=O)(=O)C2CC2)C1 (configuration not stated),"inconclusive [inhibitor, full curve]",–
Cc1noc(C)c1S(=O)(=O)N1CCCC(C(=O)NCCC2=CCCCC2)C1 (configuration not stated),"inconclusive [inhibitor, single point]",–
O=C(CSc1nnc(-c2ccncc2)n1Cc1ccco1)Nc1nc(-c2ccccc2)cs1,"inconclusive [inhibitor, single point]",–

# From PubChem BioAssay AID686979 (National Center for Advancing Translational Sciences (NCATS), 2013)
